From PubChem BioAssay (NCATS)
Some of the results follow. Shown are side measurements of this screen, not its main read-out; they come without a call. Compounds called inactive in the main read-out are mostly missing here. The note in brackets gives the kind of curve behind each potency; many fits are weak.

experiment: qHTS Assay for Lipid Storage Modulators (AID 1519); conditions: Drosophila S3 cells, BODIPY lipid droplet/cell ratio, laser cytometry; measured here: cell count channel max response; cells loaded with oleic acid
Summary of the method: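 Cells seeded at 5,000 per well were treated with compounds over a concentration series and loaded with oleic acid (400 uM, as added). Lipid droplet fluorescence (488 nm excitation, 500-530 nm channel) was read by laser-scanning cytometry and normalized to 20 uM Triacsin C.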
Tags tell the direction and shape of the fitted curve.

Compound	max response [%]
COc1ccccc1CNc1cc(-c2ccccc2C)ncn1	19.3
COc1ccc(-c2nc3cnc(N4CCOCC4)nc3n(Cc3cccs3)c2=O)cc1	26.6
COc1c2ccoc2nc2c(OC)c(OCC(O)C(C)(C)O)ccc12 (stereo not drawn)	137
NC[C@@H]1O[C@H](c2ccccc2)Cc2c1ccc(O)c2O	60.7
CC(=O)[C@@H]1[C@H]2[C@H](C(=O)[C@H]3OC[C@@H]2O3)[C@H]2C=Cc3ccccc3N21	67.7
COc1ncc2nc(-c3ccccc3)c(=O)n(CCC#N)c2n1	44
O=C(O)C1CN(CCCP(=O)(O)O)CCN1 (stereo not drawn)	-55
CCOC(=O)c1ccc(OC(=O)CCCCCN=C(N)N)cc1	38.6
c1ccc2sc(N3CCN(Cc4ccc5c(c4)OCO5)CC3)nc2c1	76
COC(=O)Nc1ccc2[nH]cc(CCNC(C)=O)c2c1	52.1
C=CC1=C(C)C2=Cc3c(C=C)c(C)c4[n]3[Sn+2][n]3c(c(C)c(CCC(=O)O)c3=CC3=NC(=C4)C(C)=C3CCC(=O)O)=CC1=N2	61
COc1ccc2[nH]cc(CCNc3ncncc3-c3ccc(C(=O)N(C)C)cc3)c2c1	24.1
CN(C)C(=O)c1ccc(-c2cncnc2NCc2cccnc2)cc1	36.8
C=CC(C)(C)c1[nH]c2ccccc2c1C1=C(O)C(=O)C(c2c[nH]c3c(CC=C(C)C)cccc23)=C(O)C1=O	60.4
CC(C)=CCc1c2c(c3occ(-c4ccc(O)c(O)c4)c(=O)c3c1O)C=CC(C)(C)O2	-70.5
O=c1cc(-c2ccc(O)cc2)oc2cccc(O)c12	78.6
O=c1c(-c2ccc(Cl)cc2)nc2cnc(N3CCOCC3)nc2n1Cc1ccc(F)cc1	27.4
COc1ccc(Oc2ncc3nc(-c4ccc(Cl)cc4)c(=O)n(C)c3n2)cc1	23.2
Fc1ccc(Nc2nc(-c3ccoc3)nc3ccccc23)cc1	-8.29
O=C1c2ccccc2C(=O)c2c1ccc(O)c2O	99.6
COC(=O)N1CCC2(CC1)CCN(c1ncccn1)CC2	28.9
N#CCCn1c(=O)c(-c2cccs2)nc2cnc(Nc3ccccc3)nc21	47.5
COc1cccc(-c2cc(NCc3ccccc3OC)ncn2)c1	9.46

same assay, conditions: Drosophila S3 cells, BODIPY lipid droplet/cell ratio, laser cytometry; measured here: cell number channel AC50; cells loaded with oleic acid

Compound	AC50
COc1cccc(Nc2ncc3nc(-c4cccs4)c(=O)n(CCC#N)c3n2)c1	5.01 µM [rising, partial curve]
COc1cccc(-c2nc(N(C)Cc3ccco3)c3ccccc3n2)c1	0.447 µM [rising, full curve]
COc1cccc(Cn2c(=O)c(CCc3ccccc3)nc3cnc(N(C)C)nc32)c1	0.447 µM [rising, full curve]
CCNc1ncc2nc(-c3cccc(C#N)c3)c(=O)n(CCC#N)c2n1	39.8 µM [rising, single point]
CN(C)C(=O)c1ccc(-c2nc(-n3ccnc3)c3ccccc3n2)cc1	0.316 µM [rising, full curve]
Cc1c(-c2ccc(O)cc2)nn(-c2ccc(O)cc2)c1-c1ccc(OCCN2CCCCC2)cc1	31.6 µM [rising, partial curve]
COc1cccc(-c2cncnc2NCCc2c[nH]c3ccc(OC)cc23)c1	0.447 µM [rising, full curve]
COc1ccc2[nH]cc(CC(N)C(=O)O)c2c1 (stereo not drawn)	14.1 µM [rising, partial curve]
FC(F)(F)c1ccccc1-c1nc(NC2CC2)c2ccccc2n1	3.55 µM [rising, partial curve, poor fit]
CN(C)c1ccc(-c2nc(NCCc3cnc[nH]3)c3ccccc3n2)cc1	0.794 µM [rising, full curve, poor fit]
CC(=O)OC1CCC2(C)C3CCC4(C)C(CC5CCCCC54C(C)=O)C3CC(=O)[C@@]2(O)C1 (stereo partly drawn)	14.1 µM [rising, partial curve, poor fit]
CCCCCCCCCCCCC(=O)N1CCCC[C@H]1CNC(=O)[C@@H](N)CCCCN	31.6 µM [rising, partial curve]
CCCn1c(=O)c2[nH]c(-c3ccccc3)nc2n(CCC)c1=O	1.78 µM [rising, full curve, poor fit]
CC(=O)NCCNc1nc(-c2ccc3c(c2)OCO3)nc2ccccc12	0.00631 µM [rising, full curve, poor fit]
COc1ccc(-c2nc3cnc(OC)nc3n(Cc3cccs3)c2=O)cc1	5.01 µM [rising, full curve, poor fit]
